# Data reported in the supplement of paper PMC8728848.
# The list shows a part of the results.
# B1: Cohesin-hDCIR (Homo sapiens) (protein)
# chain: LDDLDAVRIKVDTVNAKPGDTVRIPVRFSGIPSKGIANCDFVYSYDPNVLEIIEIEPGDIIVDPNPDKSFDTAVYPDRKIIVFLFAEDSGTGAYAITKDGVFATIVAKVKEGAPNGLSVIKFVEVGGFANNDLVEQKTQFFDGGANVGDTTEPATPTTPVTTPTTTDDLDAASQKYSQLLEKKTTKELVHTTLECVKKNMPVEETAWSCCPKNWKSFSSNCYFISTESASWQDSEKDCARMEAHLLVINTQEEQDFIFQNLQEESAYFVGLSDPEGQRHWQWVDQTPYNESSTFWHPREPSDPNERCVVLNFRKSPKRWGWNDVNCLGPQRSVCEMMKIHLHHHHHH
# Legend:
# Assay in all cases: glycan array binding signal (z-score within array); higher = stronger binding
# Details in all cases: glycan notation: IUPAC condensed, linker removed
# Fuc(a1-2)Gal = target: Fuc(a1-2)Gal
# Method in brief: (§1)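 Glycan array data came from 3228 arrays in the Consortium for Functional Glycomics database, and only arrays with an available protein sequence were kept. Glycan names were put into IUPAC-condensed notation, and columns mapping to the same glycan were averaged. The binding signal is a within-array Z-score, averaged across arrays of one protein sequence run at different concentrations or buffers and across linkers. A negative Z-score can be read as non-binding.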
# Fuc(a1-2)Gal(b1-3)GalNAc = target: Fuc(a1-2)Gal(b1-3)GalNAc
# Method in brief: as §1
# [1] = target: Fuc(a1-2)Gal(b1-3)GalNAc(a1-3)[Fuc(a1-2)]Gal(b1-4)Glc
# Method in brief: as §1
# [2] = target: Fuc(a1-2)Gal(b1-3)GalNAc(a1-3)[Fuc(a1-2)]Gal(b1-4)GlcNAc
# Method in brief: as §1
# [3] = target: Fuc(a1-2)Gal(b1-3)GalNAc(b1-3)Gal
# Method in brief: as §1
# [4] = target: Fuc(a1-2)Gal(b1-3)GalNAc(b1-3)Gal(a1-4)Gal(b1-4)Glc
# Method in brief: as §1
# [5] = target: Fuc(a1-2)Gal(b1-3)GalNAc(b1-4)[Neu5Ac(a2-3)]Gal(b1-4)Glc
# Method in brief: as §1
# Fuc(a1-2)Gal(b1-3)GlcNAc = target: Fuc(a1-2)Gal(b1-3)GlcNAc
# Method in brief: as §1
# [6] = target: Fuc(a1-2)Gal(b1-3)GlcNAc(b1-2)Man(a1-3)[Fuc(a1-2)Gal(b1-3)GlcNAc(b1-2)Man(a1-6)]Man(b1-4)GlcNAc(b1-4)GlcNAc
# Method in brief: as §1
# [7] = target: Fuc(a1-2)Gal(b1-3)GlcNAc(b1-2)Man(a1-3)[Fuc(a1-2)Gal(b1-3)GlcNAc(b1-2)Man(a1-6)]Man(b1-4)GlcNAc(b1-4)[Fuc(a1-6)]GlcNAc
# Method in brief: as §1
# [8] = target: Fuc(a1-2)Gal(b1-3)GlcNAc(b1-3)Gal(b1-4)Glc
# Method in brief: as §1
# [9] = target: Fuc(a1-2)Gal(b1-3)GlcNAc(b1-3)GalNAc
# Method in brief: as §1
# [10] = target: Fuc(a1-2)Gal(b1-3)GlcNAc(b1-3)[Fuc(a1-2)Gal(b1-3)GlcNAc(b1-6)]GalNAc
# Method in brief: as §1
# [11] = target: Fuc(a1-2)Gal(b1-3)GlcNAc(b1-3)[Gal(b1-4)GlcNAc(b1-6)]Gal(b1-4)Glc
# Method in brief: as §1
# [12] = target: Fuc(a1-2)Gal(b1-3)GlcNAc(b1-3)[Neu5Ac(a2-6)Gal(b1-4)GlcNAc(b1-6)]Gal(b1-4)Glc
# Method in brief: as §1
# [13] = target: Fuc(a1-2)Gal(b1-3)GlcNAc6S
# Method in brief: as §1
# [14] = target: Fuc(a1-2)Gal(b1-3)[Fuc(a1-4)]GlcNAc
# Method in brief: as §1
# [15] = target: Fuc(a1-2)Gal(b1-3)[Fuc(a1-4)]GlcNAc(b1-2)Man(a1-3)[Fuc(a1-2)Gal(b1-3)[Fuc(a1-4)]GlcNAc(b1-2)Man(a1-3)]Man(b1-4)GlcNAc(b1-4)GlcNAc
# Method in brief: as §1
# [16] = target: Fuc(a1-2)Gal(b1-3)[Fuc(a1-4)]GlcNAc(b1-2)Man(a1-3)[Fuc(a1-2)Gal(b1-3)[Fuc(a1-4)]GlcNAc(b1-2)Man(a1-6)]Man(b1-4)GlcNAc(b1-4)[Fuc(a1-6)]GlcNAc(b1-4)[Fuc(a1-6)]GlcNAc
# Method in brief: as §1
# [17] = target: Fuc(a1-2)Gal(b1-3)[Fuc(a1-4)]GlcNAc(b1-3)[Fuc(a1-3)[Gal(b1-4)]GlcNAc(b1-6)]Gal(b1-4)Glc
# Method in brief: as §1
# [18] = target: Fuc(a1-2)Gal(b1-3)[Fuc(a1-4)]GlcNAc(b1-3)[Gal(b1-4)GlcNAc(b1-6)]Gal(b1-4)Glc
# Method in brief: as §1
# Fuc(a1-2)Gal(b1-4)Glc = target: Fuc(a1-2)Gal(b1-4)Glc
# Method in brief: as §1
# Fuc(a1-2)Gal(b1-4)Glc6S = target: Fuc(a1-2)Gal(b1-4)Glc6S
# Method in brief: as §1
# Fuc(a1-2)Gal(b1-4)GlcNAc = target: Fuc(a1-2)Gal(b1-4)GlcNAc
# Method in brief: as §1
# [19] = target: Fuc(a1-2)Gal(b1-4)GlcNAc(b1-2)Man
# Method in brief: as §1
# [20] = target: Fuc(a1-2)Gal(b1-4)GlcNAc(b1-2)Man(a1-3)[Fuc(a1-2)Gal(b1-4)GlcNAc(b1-2)Man(a1-6)]Man(b1-4)GlcNAc(b1-4)GlcNAc
# Method in brief: as §1
# [21] = target: Fuc(a1-2)Gal(b1-4)GlcNAc(b1-2)Man(a1-3)[Fuc(a1-2)Gal(b1-4)GlcNAc(b1-2)Man(a1-6)]Man(b1-4)GlcNAc(b1-4)[Fuc(a1-6)]GlcNAc
# Method in brief: as §1
# [22] = target: Fuc(a1-2)Gal(b1-4)GlcNAc(b1-2)[Fuc(a1-2)Gal(b1-4)GlcNAc(b1-4)]Man(a1-3)[Fuc(a1-2)Gal(b1-4)GlcNAc(b1-2)Man(a1-6)]Man(b1-4)GlcNAc(b1-4)GlcNAc
# Method in brief: as §1
# [23] = target: Fuc(a1-2)Gal(b1-4)GlcNAc(b1-3)Gal(b1-4)GlcNAc
# Method in brief: as §1
# [24] = target: Fuc(a1-2)Gal(b1-4)GlcNAc(b1-3)Gal(b1-4)GlcNAc(b1-2)Man(a1-3)[Fuc(a1-2)Gal(b1-4)GlcNAc(b1-3)Gal(b1-4)GlcNAc(b1-2)Man(a1-6)]Man(b1-4)GlcNAc(b1-4)GlcNAc
# Method in brief: as §1
binder,measurement,setting,value
B1,glycan array binding signal (z-score),Fuc(a1-2)Gal,0.128
same,glycan array binding signal (z-score),Fuc(a1-2)Gal(b1-3)GalNAc,-0.617
same,glycan array binding signal (z-score),[1],-0.686
same,glycan array binding signal (z-score),[2],-0.457
same,glycan array binding signal (z-score),[3],0.634
same,glycan array binding signal (z-score),[4],1.73
same,glycan array binding signal (z-score),[5],-0.353
same,glycan array binding signal (z-score),Fuc(a1-2)Gal(b1-3)GlcNAc,-0.203
same,glycan array binding signal (z-score),[6],0.143
same,glycan array binding signal (z-score),[7],-0.479
same,glycan array binding signal (z-score),[8],-0.653
same,glycan array binding signal (z-score),[9],-0.456
same,glycan array binding signal (z-score),[10],-0.364
same,glycan array binding signal (z-score),[11],0.456
same,glycan array binding signal (z-score),[12],-0.471
same,glycan array binding signal (z-score),[13],-0.481
same,glycan array binding signal (z-score),[14],-0.373
same,glycan array binding signal (z-score),[15],0.201
same,glycan array binding signal (z-score),[16],-0.479
same,glycan array binding signal (z-score),[17],-0.643
same,glycan array binding signal (z-score),[18],-0.479
same,glycan array binding signal (z-score),Fuc(a1-2)Gal(b1-4)Glc,0.154
same,glycan array binding signal (z-score),Fuc(a1-2)Gal(b1-4)Glc6S,-0.093
same,glycan array binding signal (z-score),Fuc(a1-2)Gal(b1-4)GlcNAc,-0.064
same,glycan array binding signal (z-score),[19],-0.618
same,glycan array binding signal (z-score),[20],0.047
same,glycan array binding signal (z-score),[21],-0.285
same,glycan array binding signal (z-score),[22],-0.378
same,glycan array binding signal (z-score),[23],-0.255
same,glycan array binding signal (z-score),[24],-0.431
